From PubChem BioAssay AID1159614 (National Center for Advancing Translational Sciences (NCATS), 2016)
About 65 (0.1%) of roughly 45,000 compounds were called active. The call rests on the fitted dose curve; in most records, active means well fitted activation curve with a large enough effect; inconclusive means small, poorly fitted or top-dose-only effect; inactive means no such curve, though single readings can be large or run the other way. Some of the results follow.

target: Galactocerebrosidase (Homo sapiens) (UniProt P54803); assay: A Novel Cell-Based Assay to Identify Small Molecules for B -Galactocerebrosidase; settings: 145M-Twi-hGALC-G270D cells (Twitcher mouse brain line with human GALC G270D), HMU-beta-Gal fluorescence, 48 h; series mostly up to 57.5 µM; activation: at the top concentration; further: 0% is about no effect; nearly all actives have a fitted effect of over 65% in size
Sequence of UniProt P54803 (P54803 whole entry, looked up): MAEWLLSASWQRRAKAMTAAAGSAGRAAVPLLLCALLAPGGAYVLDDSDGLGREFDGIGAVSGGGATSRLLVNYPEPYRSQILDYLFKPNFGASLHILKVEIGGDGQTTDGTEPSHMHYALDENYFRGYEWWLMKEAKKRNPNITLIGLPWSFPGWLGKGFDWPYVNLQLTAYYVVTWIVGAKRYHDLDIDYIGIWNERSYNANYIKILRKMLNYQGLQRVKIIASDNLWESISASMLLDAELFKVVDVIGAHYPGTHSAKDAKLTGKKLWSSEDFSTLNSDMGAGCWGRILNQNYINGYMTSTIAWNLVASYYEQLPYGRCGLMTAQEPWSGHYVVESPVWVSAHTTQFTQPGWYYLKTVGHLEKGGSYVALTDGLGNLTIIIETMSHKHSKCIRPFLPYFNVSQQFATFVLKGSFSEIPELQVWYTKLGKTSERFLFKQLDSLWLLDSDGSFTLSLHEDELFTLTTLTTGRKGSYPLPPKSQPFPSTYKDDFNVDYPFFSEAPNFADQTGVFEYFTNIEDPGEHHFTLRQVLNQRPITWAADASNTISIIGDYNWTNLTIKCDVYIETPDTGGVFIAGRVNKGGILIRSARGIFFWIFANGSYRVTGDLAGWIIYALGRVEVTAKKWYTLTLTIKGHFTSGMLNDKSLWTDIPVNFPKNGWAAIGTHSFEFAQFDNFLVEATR
Method in brief: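 Fluorescence readout: HMU-β-gal cleavage by mutant GALC (0.1 mM final, citrate/phosphate pH 5.2 with 1 mg/mL taurocholate), stopped with carbonate/bicarbonate plus Triton X-100. Cells: murine Twitcher 145M-Twi expressing human G270D GALC; qHTS for activators.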

activation, inactive:
Cc1ccc(-n2nc(C)c3c(C)c(CCC(=O)NC(C)c4ccccc4)c(C)nc32)cc1 (stereo not drawn) -0.577%
Cc1ccc(Cc2nc3ccccc3nc2SCC(=O)N2CCC(C)CC2)cc1 -36.8%
Cc1ccc(NC(=O)Cn2c(=O)n(-c3ccc(C)cc3)c(=O)c3c2cnn3C)cc1 -17.2%
Fc1ccc(CN2CCc3nc(N4CCN(c5ccccc5F)CC4)ncc3C2)c(F)c1 -8.65%
CCOc1ccc(-c2cc(NC(=O)c3ccccc3)c(C(=O)OC)s2)cc1 -10.2%
Cc1cc(C)c(NC(=O)Cn2c(=O)oc3cc(S(=O)(=O)N4CCCCCC4)ccc32)c(C)c1 -17.9%
COc1ccccc1CCNC(=O)c1cccn1-c1nnc(N2CCCC2)s1 -14.2%
Cc1ccccc1NC(=O)C(=O)NCC(c1ccc2c(c1)OCO2)N1CCN(c2ccccc2)CC1 (stereo not drawn) -25.7%
COc1ccc(CNC(=O)Cn2c(=O)oc3cc(S(=O)(=O)NCc4ccccc4)ccc32)cc1 -13.1%
CCOc1ccc(C2C(C(=O)Nc3ccccc3)=C(C)Nc3nc(-c4ccccc4Cl)nn32)cc1OC (stereo not drawn) -10.9%
CCCN(C(=O)c1cc(S(=O)(=O)N2CCc3ccccc32)cn1C)c1ccc(OCC)cc1 -23.7%
Cc1ccc(Cl)cc1N1CCN(c2ncnc3c2nc2n3CCCC2)CC1 -13.7%
FC(F)(F)c1cccc(N2CCN(c3ncnc4c3nc3n4CCCC3)CC2)c1 -28.1%
CCC(C)NC(=O)c1cc(Sc2cccc(Cl)c2)nc2ccccc12 (stereo not drawn) 0.115%
CCCn1c2ccccc2c2cnn(CC(=O)NCCCN3CCCCC3CC)c(=O)c21 (stereo not drawn) 7.34%
O=C(Cn1nc(C(F)(F)F)c2c1CCCC2)Nc1cccc(Cl)c1 -12.5%
CCOc1ccc(Nc2cc(C)nc3nncn23)cc1 -6.71%
COc1ccc(NC(=O)c2cc3c(-c4ccccc4F)nn(C)c3s2)c(OC)c1 -10.3%
Cc1ccccc1NC(=O)Cn1cc(S(=O)(=O)c2ccccc2)c(=O)c2ccccc21 -1.62%
CC(C)c1cnc2c(c1SCC(=O)NC(C)(C)C)c(=O)n(C)c(=O)n2C -6.4%
CCc1ccc(-c2nc(CS(=O)CC(=O)NCCc3ccc(C)cc3)c(C)o2)cc1 (stereo not drawn) -12%
CCOc1ccc(N(C)C(=O)c2oc(=O)c3ccccc3c2-c2ccccc2)cc1 -6.19%
CCOC(=O)c1noc2nc(C)n(CC(=O)Nc3cccc(OC)c3)c(=O)c12 -20.5%
Cc1ccc(CN(C(=O)c2ccc(OCC(C)C)cc2)c2ccccn2)o1 -17.7%
O=C(O)CC1c2ccccc2CCN1C(=O)Nc1cc(Cl)ccc1Cl (stereo not drawn) -20.9%
CCn1cc2c(n1)-c1c(oc(C(=O)Nc3ccc(Br)cc3F)c1C)CC2 -2.87%
Cc1ccc(N(CC(=O)N2CCN(c3cc(C)ccc3C)CC2)S(=O)(=O)c2c(C)nn(C)c2C)cc1 -5.7%
CCc1ccc(S(=O)(=O)c2nnn3c2nc(N2CCN(c4ccccc4)CC2)c2cc(Cl)ccc23)cc1 -2.87%
Cc1cccc2c1-c1sc(C(=O)Nc3ccc(F)cc3F)cc1CO2 -5.72%
COC(=O)COc1ccc(-c2nnc(Nc3ccc(O)cc3)c3ccccc23)cc1 17.8%
CCCCC1CCC(C(=O)N2CC(=O)Nc3ccc(Br)cc3C2c2ccc(F)cc2)CC1 (stereo not drawn) -8.97%
CN(C(=O)Cn1nc(Cc2cccnc2)c2ccccc2c1=O)c1cccc(C(F)(F)F)c1 -14.6%
O=c1c2sc3ccccc3c2n(Cc2cccc(F)c2)c(=O)n1CCc1ccccc1 -16.6%
CCN(CC)C(=O)Cn1c(=O)n(CCCCCC(=O)NCc2ccc3c(c2)OCO3)c(=O)c2sccc21 0.305%
Cc1ccc(CNC(=O)C(=O)Nc2c3c(nn2-c2ccc(F)cc2)CSC3)cc1 -12.5%
Cc1ccc(NC(=O)CN2C(=O)COc3ccc(S(=O)(=O)N4CCCCCC4)cc32)c(C)c1 7.34%
Cc1ccc(CNC(=O)c2ccc(N3CCCC3)c(NC(=O)Nc3ccc(C)cc3)c2)cc1 -9.42%
CCC(=O)OCc1cc(=O)n2nc(C3CC3)sc2n1 -12.9%
CCCc1cnc2c(c1SCC(=O)NCc1ccc(C)cc1)c(=O)n(C)c(=O)n2C -9.94%
CCCCCCC(=O)Nc1ccc2nc3c(=O)n(C)c(=O)n(C)c3nc2c1C -10.3%
O=C(c1ccc2c(c1)N(Cc1ccc(Cl)cc1)C(=O)c1ccccc1S2(=O)=O)N1CCCC1 -4.93%
CC(=O)Nc1cccc(-c2nc(-c3ccccc3)no2)c1 15.1%
CCOC(=O)c1ccc(N2C(=O)c3n[nH]c(-c4ccco4)c3C2c2ccc(C(=O)OC)cc2)cc1 (stereo not drawn) 9.44%
COC(=O)c1ccccc1NC(=O)[C@H]1O[C@@H]2OC(C)(C)O[C@@H]2[C@H]2OC(C)(C)O[C@H]21 -8.56%
Cc1cc(C)cc(OCC(=O)Nc2cccc3cccnc23)c1 -11.3%
CC(=O)OCC(=O)[C@@]1(O)CCC2C3CCC4=CC(=O)CC[C@]4(C)C3[C@@H](O)C[C@@]21C (stereo partly drawn) -21.3%
CCOc1ccc(CNC(=O)c2oc3c(c2C)-c2nn(Cc4cccc(Cl)c4)cc2CC3)cc1 -17.5%
COc1ccc(C)c2sc(NC(=O)c3ccc(S(=O)(=O)N(C)C)cc3)nc12 -20.1%
